# In PubChem BioAssay AID588591 (National Center for Advancing Translational Sciences (NCATS), 2011):
# Values joined by “and” are separate entries in the source; they are usually repeats but may differ in a detail not shown here. Equal entries are not always repeated. Hit rate of the full screen: of about 390,000 compounds, about 4,700 (1.2%) were called active. Inconclusive means that the source gave no clear call. Such entries were picked first, then a sample of the others. Calls follow the shape of the dose curve; as a rule, active = well fitted inhibition curve with a large enough effect; inconclusive = small, poorly fitted or top-dose-only effect, or another doubt; inactive = no such curve, though single readings can be large or run the other way. A potency beside an inconclusive call is a rough fit, not a confirmed value.
# Biological target: DNA polymerase eta (Homo sapiens) (UniProt Q9Y253)
# Sequence of UniProt Q9Y253 (Q9Y253 whole entry, looked up): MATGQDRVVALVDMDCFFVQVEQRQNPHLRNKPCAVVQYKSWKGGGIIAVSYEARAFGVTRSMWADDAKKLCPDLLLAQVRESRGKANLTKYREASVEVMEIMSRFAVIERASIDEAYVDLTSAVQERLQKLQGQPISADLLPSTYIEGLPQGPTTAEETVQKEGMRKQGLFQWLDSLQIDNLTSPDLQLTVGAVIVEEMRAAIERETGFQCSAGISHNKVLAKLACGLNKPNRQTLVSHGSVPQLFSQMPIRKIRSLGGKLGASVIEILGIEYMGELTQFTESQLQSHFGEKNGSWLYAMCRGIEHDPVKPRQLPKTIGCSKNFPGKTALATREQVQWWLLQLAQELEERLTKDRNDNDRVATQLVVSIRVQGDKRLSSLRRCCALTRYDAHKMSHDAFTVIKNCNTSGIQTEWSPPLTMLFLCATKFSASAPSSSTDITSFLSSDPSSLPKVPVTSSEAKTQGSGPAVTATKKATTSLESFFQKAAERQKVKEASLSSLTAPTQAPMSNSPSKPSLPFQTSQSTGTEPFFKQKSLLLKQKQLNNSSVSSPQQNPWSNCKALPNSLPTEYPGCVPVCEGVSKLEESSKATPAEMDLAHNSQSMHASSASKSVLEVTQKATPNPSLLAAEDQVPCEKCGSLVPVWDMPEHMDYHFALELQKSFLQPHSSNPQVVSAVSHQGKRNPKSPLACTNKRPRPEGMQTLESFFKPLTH
# Experiment: qHTS for Inhibitors of Polymerase Eta
# Conditions: recombinant Pol eta, fluorescent DNA replication assay; series mostly up to 114 µM; activity change, negative = inhibition: at the top concentration
# Outline: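 Fluorescent replication assay: 50 nM final substrate added after a 15 min room-temperature compound preincubation with 10 nM enzyme. Signal taken at 0 min and again at 10 min.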
# % is scaled to controls: 0 for no effect and ±100 for the full control effect; potency is read from the fitted curve at half-maximal effect; tags tell the direction and shape of the fitted curve.
SMILES,Potency,"activity change, negative = inhibition"
CCOC(=O)c1nn(-c2ccccc2)c(=O)c2c(N)scc12,"inconclusive: 28.2 µM [inhibitor, partial curve, poor fit]",–
O=C(NC1CC1)C1CCN(S(=O)(=O)c2cc([N+](=O)[O-])ccc2Cl)CC1,active: 12.6 µM,–
COc1cccc(CNC(=O)CCc2c(C)c3cc4c(C)coc4c(C)c3oc2=O)c1,"inconclusive: 89.1 µM [inhibitor, single point]",–
COc1cccc(NC(=O)CN(C)C(=O)CSCc2nc3scc(-c4cccs4)c3c(=O)[nH]2)c1,"inconclusive: 31.6 µM [inhibitor, partial curve, poor fit]",–
Cc1ccc(NC(=O)CN(C)C(=O)c2cccc(-n3cccc3)c2)cc1,active: 2.51 µM,–
CCOC(=O)c1c(NC(=O)CSc2nnc(C)s2)sc2c1CCN(C)C2,"inconclusive: 10 µM [inhibitor, full curve, poor fit]",–
CCOC(=O)CCCc1sc(N)nc1-c1[nH]c(=O)[nH]c1C,"inconclusive: 50.1 µM [inhibitor, partial curve, poor fit]",–
CC(=C/c1ccco1)/C=N/NC(=O)Cc1cccn1C,"inconclusive: 20 µM [inhibitor, partial curve]",–
Cc1csc(NC(=O)C2=NN(c3ccccc3)C(=O)CC2)n1,"inconclusive: 89.1 µM [inhibitor, partial curve, poor fit]",–
COc1cc(/C=C(\C(=O)O)c2ccc(S(=O)(=O)N3CCCC3)s2)cc(OC)c1,"inconclusive: 14.1 µM [inhibitor, full curve]",–
CC(=O)/C(N=Nc1ccc(C(=O)O)cc1[N+](=O)[O-])=C(\C)O,active: 11.2 µM,–
CN(Cc1ccco1)S(=O)(=O)c1nnc(NC(=O)c2cccc(Cl)c2)s1,"inconclusive: 89.1 µM [inhibitor, single point]",–
N#CC1=C(N)Oc2n[nH]c(-c3cccs3)c2C1c1cccnc1 (centres undefined),–,inactive: -9.64%
CCCCCCNC(=O)O[C@H]1Cn2c(=O)n(CCCCCC)c(=O)n2[C@@H]2CN(S(=O)(=O)c3ccc(C)cc3)C[C@]12O,"inconclusive: 44.7 µM [inhibitor, partial curve, poor fit]",–
O=C(N/N=C/c1ccc(Cl)c([N+](=O)[O-])c1)c1ccc2nc[nH]c2c1,"inconclusive: 39.8 µM [inhibitor, single point]",–
NC1=CC(=O)C(=O)c2ccccc21,"inconclusive: 56.2 µM [inhibitor, partial curve, poor fit]",–
NC(=N\N=Cc1ccco1)/C(N)=N/N=Cc1ccco1,active: 44.7 µM,–
CCOc1ccc(-n2cc(C(=O)NCc3ccco3)c3cc(OC)c(OC)cc3c2=O)cc1,"inconclusive: 20 µM [inhibitor, partial curve, poor fit]",–
CN1/C(=N\O)c2cccc3cccc1c23,"inconclusive: 25.1 µM [inhibitor, single point]",–
O=C(NN1C(=O)/C(=C/c2ccc(O)cc2)SC1=S)c1ccccc1O,active: 79.4 µM,–

SMILES,Potency,"activity change, negative = inhibition"
O=C(NCc1ccco1)C1OCCc2ccccc21 (centres undefined),"inconclusive: 10 µM [inhibitor, partial curve, poor fit]",–
CCOC(=O)c1c(N)sc(=S)c2c1CCC2,"inconclusive: 14.1 µM [inhibitor, full curve, poor fit]",–
CCOc1ccc(NC(=O)CCS(=O)(=O)c2ccc(Br)cc2)cc1,active: 39.8 µM and active: 17.8 µM,–
CC(=O)Nc1ccc(C(=O)OCC(=O)N(c2ccccc2)C2CCCCC2)cc1,–,inactive: -23.8%
N=C1C(c2nc3ccccc3s2)=C(O)CN1NC(=O)c1ccco1,–,inactive: -4.02%
Cc1ccc(/C=C/c2onc(C)c2S(=O)(=O)N2CCC(C(=O)N3CCCCC3)CC2)cc1,"inconclusive: 79.4 µM [inhibitor, partial curve, poor fit]",–
N/C(=N\c1nc2ccccc2o1)NC(=O)c1ccccc1,"inconclusive: 2.82 µM [inhibitor, partial curve, poor fit]",–
NS(=O)(=O)c1ccc2c(c1)C1C=CCC1C(C1CC=CCC1)N2 (centres undefined),"inconclusive: 20 µM [inhibitor, full curve]",–
CCOC(=O)CC1C(=O)NCCN1c1nc2c(C)cccn2c(=O)c1/C=C1\SC(=S)N(C(C)CC)C1=O (centres undefined),"inconclusive: 22.4 µM [inhibitor, full curve]",–
CCOc1ccc(N=Cc2c(C)[nH]n(-c3nc4ccccc4[nH]3)c2=O)cc1,active: 15.8 µM,–
COc1cccc(C(=O)N/N=C/c2cn[nH]c2-c2ccc(OC)cc2OC)c1,"inconclusive: 79.4 µM [inhibitor, partial curve, poor fit]",–
C=CC(=O)Nc1ccc(Nc2nc(NC3CCC(N(C)C)CC3)nc3c2ncn3C(C)C)cc1 (centres undefined),"inconclusive: 79.4 µM [inhibitor, partial curve, poor fit]",–
Cc1ccccc1NC(=O)CCS(=O)(=O)c1ccc(Br)s1,"inconclusive: 22.4 µM [inhibitor, full curve]",–
Oc1c(CN2CCN(c3ccccn3)CC2)cc(Cl)c2cccnc12,"inconclusive: 89.1 µM [inhibitor, partial curve, poor fit]",–
COc1ccc(C(=O)Nc2ccc(S(=O)(=O)N3CCCC3)cc2)cc1[N+](=O)[O-],"inconclusive: 0.0891 µM [inhibitor, full curve, poor fit]",–
CCOc1ccc(-c2cc3nc(C4CCN(C(=O)OC(C)(C)C)CC4)c(C(=O)Nc4ccc(C)cc4C)cn3n2)cc1,"inconclusive: 100 µM [inhibitor, single point]",–
O=c1cc(-c2ccc(O)c(O)c2)oc2cc(O[C@@H]3O[C@H](CO)[C@@H](O)[C@H](O)[C@H]3O)cc(O)c12,active: 8.91 µM,–
Cc1ccc(Cl)cc1-n1c(=O)cc(N2CCN(C(=O)c3ccco3)CC2)[nH]c1=O,"inconclusive: 39.8 µM [inhibitor, partial curve, poor fit]",–
COc1ccc(/C=C2/SC(=S)N(CC(=O)O)C2=O)cc1OCc1ccc(Cl)cc1,"inconclusive: 56.2 µM [inhibitor, partial curve, poor fit]",–
